Sequences and labels used below:
B1: OR4K15 (parent)
chain: GUUAACGGUCAUAGGCCAUGGAAACUAGGAGCACCAUUUCGCUGCCAGUGAAGAAAUGAACAAAGAAAAUCUGGGCCAGGCAGGCAUCAAAAGAAAUAGUCUUGCGCUCAACCAGAAAGUCUGUAAUCAUUUUAAGGGUA

The source gives no read counts; variants with many changes may rest on few reads.

The variants in the data set derive from B1. The data set can be described thus: self-cleavage, relative activity (ratio to wild type); higher = more cleavage; in vitro, sequencing; the parent is a self-cleaving ribozyme.
Take U43A U49C U131C: the self-cleavage stood at 1.7.
In the case of U43A U57C G106A U120C U124A U132C, the self-cleavage was found to be 0.
The figure for U43C A82G U97C is 0.3; for U43A A52G A59G U97C it is 0.74.
Take U39C U49C A68G: the self-cleavage stood at 1.57.
The figure for U43C A59U A91G is 1.19.
The figure for C45U A47G G48A A116G is 1.01; for U39C A47U A63G A67G it is 1.
Next, G41A A59G A66G U100C: 1.58; U43A A55G A94G U108A A125G U130C: 0.
For U39C U43C A56U, the self-cleavage amounted to 1.45.
As for U39C A51G A59G, the self-cleavage was 1.21.
The figure for U39C A55G A78G is 0.22; for G41C U57C A78G C113U it is 0.03; for C45A A89G A118G it is 0.74.
For the variant U39C G84C G115U, the self-cleavage amounted to 0.02.
Next, U43C A60G A94G: 1.48; U43C U122C A140G: 1.74; U43C A60G A95G U108C A114G: 0.02.
Turning to U39C A82G U103C A110U, the self-cleavage was 1.05.
For the variant U39C A56G U108A, the self-cleavage was 0.01.
As to U43C A96G U102A A114U, the self-cleavage is 0.03.
Next, U43A A54G A94G: 2.44; U43A A54U A117G A135G: 1.53.
Next, U43A C112A U132A: 0.2; U39G A52G U70C A86G: 0.62.
Next, U39C A47U U122C: 0.48; C40A U72C A114U: 0.07; U39C A52G A69G G104A C109A G136A A140G: 0.
On to U43C A47G A55G U130C, for which the self-cleavage turned out to be 0.5.
Next, G41A A60G A92G G106A: 0.02; U43C A68G A114G: 0.41; U43C A55G A90G A91G: 0.75.
The figure for U43C G44A U57A is 1.23; for U43C A63G A116G it is 1.34.
Turning to U43C G75C A90G U108G, the self-cleavage amounted to 0.03.
Consider U43C A63U A68G, for which the self-cleavage turned out to be 1.57.
Next, U39C A69G U87C: 1.3; U43A A118G U122C: 0.96.
As for U43A C85U U103C U124A U130C, the self-cleavage is 0.05.
The figure for U39C A91G U122A is 0.79; for U43A A90G A135G it is 1.15; for C42U U43G A69G G80A A96G it is 0.15.
Take C42G A59G A68G A91G U100C: the self-cleavage stood at 1.32.
The figure for U43C A62G A98G U127C is 0.15; for U43C A94G A110G it is 0.19; for G44A A96G U120C G136A G138A it is 1.06.
Turning to C40A A94G U127C U139C, the self-cleavage was determined as 0.52.
Next, U43C A47G A125G U131C U133C: 0.2.
Next, U43A U100C U132C: 2.54; U43C U103C U130C: 0.64; U43A A78G U130C: 0.21.
Turning to U43C A51G A116G, the self-cleavage was determined as 0.42.
For the variant G44A U57C A91G, the self-cleavage is 0.34.
For the variant U43C A96G U108C, the self-cleavage was found to be 0.01.
In the case of U39C U70C U87C A89U, the self-cleavage amounted to 1.08.
For G44A A82U A92G, the self-cleavage was 0.12.
Next, U39G A55G A69G A98G A118G U130C: 0.1; U43C U87C A95G U100C: 2.92.
Turning to C40A A55G U97C U132C, the self-cleavage amounted to 0.48.
The figure for U43C A90G G106A is 0.02.
The figure for U43A A67G G104A is 0.
The figure for U39C A59G A66G is 2.09; for U39C A60G A69G U70A U100C it is 1.9; for G41A A55G C77U it is 1.17.
Take U39C A59G U87A A98U: the self-cleavage worked out at 1.59.
The figure for U39C A59G U102C is 2.06; for U39C A91G A92G G99U it is 0.29; for U39C A86G A89G A126G U127C it is 0.
U43C U100C A116G A126G A140U: the self-cleavage amounted to 0.9.
The figure for C45G A47G U87C is 0.9; for U43A A56C A110G it is 0.09; for U39C U57C A66G A67G A117G U124A it is 0.49.
Consider U39C U49C A94G, for which the self-cleavage turned out to be 1.
The figure for U43C U49C A82G U120G is 0.19.
Next, U39C U108C A118U: 0.01; U43C A55G A68G U120C: 0.53.
Next, U39C U49C U103C: 0.75; U43A A78G A91G U131C U139A: 0.14.
For U39C A66U U72C A86G A92G, the self-cleavage was 0.18.
For the variant U43C A91G U120C U132C, the self-cleavage was 0.24.
The figure for G41A U72A U120C is 0.05.
Next, U43C A69G G75U: 0.1; U43A A67G A94U U108C U120A: 0.
The figure for G41A U57C A66G A96G is 1.64; for U39C A54G A98U it is 1.24.
Regarding U43A A82G A91G U120C, the self-cleavage worked out at 0.06.
The figure for U39C A78G U130C is 0.17.
Regarding U43C A78U G106U U139C, the self-cleavage is 0.01.
Take U43A A68G U72A U97C: the self-cleavage is 0.08.
Consider U43C A54G A59G A78G U103C A116U, for which the self-cleavage was 0.05.
The figure for U43C C76U A118G is 0.02; for G41A A68G A78U A110C U120C U127C it is 0.01.
For the variant U43A G53A A92U U131C, the self-cleavage came out at 1.78.
The figure for U43A A51U U131C U132C is 1.13; for C42U U43C A56G C121U it is 1.78.
Take U43C A82G A96G A111C: the self-cleavage amounted to 0.01.
The figure for U39C U43C U57C A86G A117G is 1.06; for U39C G41U U57A U100C A126G it is 2.48.
Take U43C A51G A114U: the self-cleavage was found to be 0.06.
With U43C A78G A90G, the self-cleavage was 0.23.
Next, U43A A96G U108C: 0.02; U39C A62G A96G: 1.72.
Next, U39C A66C A82U: 0.17; C40U C113U U124C: 0.06; U43C A94G C109U: 0.47.
Next, C40U A63U A110G: 0.06.
Regarding U39C A78U U127C, the self-cleavage turned out to be 0.14.
For U43A A62G U87C U127C, the self-cleavage was 0.81.
The figure for U43A A64G A95G is 1.8; for U39C A62U A91G it is 0.81; for G41A U102C A110G it is 0.17.
G41A U57A A60G A92G U139C: the self-cleavage stood at 0.53.
The figure for U43C A96G A110C A126G is 0.21.
The figure for U43C U87C A126C is 1.01; for U39C A55G U102C it is 2.45; for U43A A56G G137U it is 2.92.
Next, U43C A47G A51U: 1.53; G44C A90U U100A: 1.22; C45U A52G U124C: 0.63.
Regarding U43C A92G A135U, the self-cleavage stood at 0.75.
The figure for U43A A52G U70C is 0.49; for U43C A51U A69U A92G it is 1.68; for U43G G65A A94G it is 2.03.
As for U43C A55G G104A U122A, the self-cleavage worked out at 0.02.
Consider U43C A55G A67G A90G, for which the self-cleavage is 1.11.
The figure for U43G A86U U102A U132C is 0.92; for U43G A54G A118G it is 2; for C45U A64G U103C U130C it is 0.12.
As to U39C U70C U120A, the self-cleavage turned out to be 0.6.
Next, U43C A55G C61G A116G U120A: 0.11; U43A A66G A117G: 2.63.
Next, U39C A110G U131C: 0.16.
For U39C A68G U130C, the self-cleavage is 0.94.
The figure for U39C A47G U102C U130C U133C is 2.03; for U43A A51G U57C A66U it is 1.05; for U39C A51U A52G A89U it is 0.32.
The figure for U43C U103C A118G is 0.61; for G41A A62G A78U U120C A140G it is 0.25; for U43C A89G A98U U130C it is 1.37.
With U39C A89G A90U U108A, the self-cleavage turned out to be 0.01.
In the case of C40A G83A A96G, the self-cleavage was 2.43.
For C40U A52G A56G A114U, the self-cleavage was found to be 0.07.
The figure for U43A A92G U108C is 0.04; for G41A U72C A86G A94G it is 0.3; for U39C A78U U100C it is 0.81.
For the variant U43C A66G A86G U100C A117G, the self-cleavage turned out to be 2.58.
Take C42A A63U U97A: the self-cleavage amounted to 1.33.
On to U43C U87C A96G, for which the self-cleavage came to 1.63.
The figure for U43C U100A U120A A126G is 0.22; for C40U A47G A116G it is 0.6.
In the case of U43C U87C A95G U103C G123A, the self-cleavage came to 0.54.
Next, U43A A60U A67G: 1.36.
Next, U39C U43G U87G A114G: 0.25.
Next, U43A U49C A78G A94G A96G: 0.12; U43G C61U A69G: 1.32.
For U39C G50U A68G, the self-cleavage is 1.4.
Regarding G41A A63G A68G A140U, the self-cleavage was found to be 1.38.
Take U39C A63U U108C: the self-cleavage was found to be 0.
Consider G41C A51G U102C, for which the self-cleavage stood at 1.28.
In the case of U39C A98G U130C A134G, the self-cleavage was found to be 0.4.
For the variant U43C A78U A94G, the self-cleavage worked out at 0.27.
The figure for U43C A47U U49C U102C is 1.09.
Next, U39C G58A A110G: 0.07; U39C A67U A118U: 1.79.
U43C U103C A116G U132C: the self-cleavage was 0.1.
Take U43A A52G U97C: the self-cleavage is 0.58.

The values above are taken from the RNAGym collection of RNA variant scans (doi:10.7554/elife.90254).
